Structures are written as SMILES. Whole data set: some 110,000 compounds, median “z-score” near -0.1, cut for the highest 2% near 2. The list shows a part of the results. Active and inactive are the calls of the source.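 Rule for the calls: active = z-score in the third read window above 3 or below -3; inactive = the rest.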

The experiment concerns the target Metabotropic glutamate receptor 8 (Rattus norvegicus) (UniProt P70579). In words: rat mGluR8 modulators via GIRK flux, primary screen, cell-based, thallium flux, HTS (AID 488969). Particulars: HEK293 rat mGluR8, GIRK (G protein-gated inwardly rectifying potassium channel) thallium flux, FluoZin2; at 10 µM; stronger effect = higher value; submaximal glutamate (EC20) added with thallium.
Chain of UniProt P70579 (P70579 whole entry, looked up): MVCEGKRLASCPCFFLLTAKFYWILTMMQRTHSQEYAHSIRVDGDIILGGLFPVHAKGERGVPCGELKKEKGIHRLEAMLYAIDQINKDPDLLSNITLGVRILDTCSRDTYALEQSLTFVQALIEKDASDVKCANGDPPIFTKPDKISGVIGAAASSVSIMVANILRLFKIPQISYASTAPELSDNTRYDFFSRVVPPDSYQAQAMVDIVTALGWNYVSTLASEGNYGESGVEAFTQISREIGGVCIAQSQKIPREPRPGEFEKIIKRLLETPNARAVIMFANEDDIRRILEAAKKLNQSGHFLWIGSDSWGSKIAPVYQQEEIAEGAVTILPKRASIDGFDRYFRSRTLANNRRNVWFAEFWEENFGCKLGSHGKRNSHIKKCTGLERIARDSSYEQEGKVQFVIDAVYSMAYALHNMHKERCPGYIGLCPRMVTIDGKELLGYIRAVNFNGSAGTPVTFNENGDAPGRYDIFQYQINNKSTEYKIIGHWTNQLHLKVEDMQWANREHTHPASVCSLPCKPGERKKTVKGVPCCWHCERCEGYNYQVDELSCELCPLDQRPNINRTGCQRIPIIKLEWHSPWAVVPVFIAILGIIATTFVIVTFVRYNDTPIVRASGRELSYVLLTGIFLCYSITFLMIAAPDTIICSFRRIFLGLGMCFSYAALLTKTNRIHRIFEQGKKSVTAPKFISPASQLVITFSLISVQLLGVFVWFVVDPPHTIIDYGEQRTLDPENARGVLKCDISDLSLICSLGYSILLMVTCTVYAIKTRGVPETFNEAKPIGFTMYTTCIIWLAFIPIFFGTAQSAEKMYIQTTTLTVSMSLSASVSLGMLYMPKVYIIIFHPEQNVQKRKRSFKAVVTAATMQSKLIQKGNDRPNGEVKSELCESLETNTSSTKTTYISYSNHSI
With `O=C(CN1C(=O)c2cccc3cccc1c23)NCC1CCCO1` (centres undefined), the z-score stood at 0.744.

`CC1(C)CC(=O)C2=C(C1)NC(Nc1nc3ccccc3o1)=NC21CCCCC1` came in with a z-score of 0.596.

As for `Cc1ccc(NC(=O)CSc2nc3ccccc3c3nc(CCc4c(C)n[nH]c4C)nn23)cc1F`, the z-score is -0.264.

For the compound `COc1ccc2[nH]c3c(c2c1)CCn1c-3nc2sc(C(=O)Nc3ccccc3)c(C)c2c1=O`, the z-score is -0.0758.

On to `N=C1C(c2nc(-c3ccc(F)cc3)cs2)=C(O)CN1CCCN1CCOCC1`, for which the z-score was determined as 0.288.

For the compound `O=C1CCC/C(=N/NC(=O)c2ccc(CN3c4cccc5cccc(c45)S3(=O)=O)cc2)C1`, the z-score is -0.115.

Regarding `CC(C)c1ccc(/C=C/C(=O)n2nnc3ccccc32)cc1`, the z-score is 0.601.

With `O=C(CCc1nc(-c2ccccc2F)no1)NC1CCN(Cc2ccccc2)CC1`, the z-score turned out to be 0.608.

Take `N#C/C(=N\Nc1ccccc1)C(=N)N1CCOCC1`: the z-score worked out at 0.135.

Regarding `CCCCn1c(NCCN(C)C)nc2c1c(=O)[nH]c(=O)n2C`, the z-score came to 0.337.

For `Cc1ccc(NC(=O)CCN2CCN(C/C=C/c3ccccc3)CC2)cc1C`, the z-score came out at 0.543.

For `Cc1nn(Cc2ccccc2)c(C)c1NC(=O)CCC(=O)O`, the z-score was -0.119.

For the compound `CN(C)CCNc1nc(-c2ccccc2)c2c(c1C#N)CC(C)(C)OC2`, the z-score is -0.264.

For the compound `Cc1ccc(C2=[N+]([O-])C3(CCCCC/C3=N\NC(N)=O)N(O)C2(C)C)o1` (centres undefined), the z-score is -0.0325.

Compound `COC(=O)CCn1nnc(-c2ccc(C(C)C)cc2)n1` showed a z-score of -0.177.

`Cc1ccc(-c2cnn(-c3cccc([N+](=O)[O-])c3)c2N)cc1` returned a z-score of -0.173.

Regarding `CCOC(=O)C(CC)(CC)/C(C)=N/NC(=O)CC#N`, the z-score was 0.316.

With `N#Cc1c(/N=C/c2cccs2)sc2c1CCCCC2`, the z-score was -0.587.

Take `Cc1ccc(-c2csc(NC(=O)c3ccno3)n2)cc1`: the z-score was 0.118.

`CC(C)(C)c1ccc(C2CC2C(=O)N/N=C\c2cc3ccccc3nc2Cl)cc1` (centres undefined) registered a z-score of -0.118.

In turn, `c1ccc(-c2nc(-c3ccco3)cs2)nc1` had a z-score of 1.2.

In the case of `Cc1ccc(/C=c2\sc3nc(-c4cccs4)nn3c2=O)o1`, the z-score was -0.419.

As for `Cn1c(=O)c2ncn(CC(=O)Nc3ccc4c5c(cccc35)CC4)c2n(C)c1=O`, the z-score worked out at 1.66.

`Cc1cc(C)nc(SCc2nnc(SCC(=O)Nc3nc(-c4ccccc4)cs3)n2-c2ccccc2)n1`: the z-score was -0.227.

`Cc1ccc2nc(SC(C)C(=O)NCc3ccco3)[nH]c2c1` (centres undefined) came in with a z-score of 0.142.

The compound `Cc1cc(C)c2c(-n3cccc3)c(C(=O)NNS(=O)(=O)c3ccccc3)sc2n1` gave a z-score of -0.415.

`O=C(Cc1ccccc1)N/N=C/c1ccc(OC(=O)/C=C\c2ccco2)cc1` showed a z-score of -0.0554.

Take `CC(C)(C)c1ccc(OCC(=O)NCCN2CCCC2)cc1`: the z-score stood at 0.285.

In turn, `Cn1c(=O)c2sccc2n2c(CCCC(=O)NCc3ccc4c(c3)OCO4)nnc12` registered a z-score of -0.304.

As to `Cc1cc(NC(=O)CCCC(=O)N(CC(=O)NC2CCCCC2)c2ccccc2)no1`, the z-score was -0.038.

As for `O=C(CSc1ccc(/C=N/NC(=O)c2cccc(F)c2)o1)Nc1ccccc1`, the z-score was -0.589.

`COc1ccc(CC(=O)NNc2ncnc3c2cnn3-c2ccccc2)cc1`: the z-score is -0.0867.

Consider `COc1cc(/C=C2/C(=N)N3OC(C)=CC3=NC2=O)ccc1OCCOc1ccc(C)cc1`, for which the z-score is -0.224.

The compound `Cc1ccc(S(=O)(=O)N2CCOCC2)cc1C(=O)NCc1cn2ccsc2n1` yielded a z-score of -0.137.

For the compound `Cc1ccccc1NC1=NC(C)(C)N=C(N)N1`, the z-score is -0.227.

For `CCc1ccc(-c2csc(NC(=O)C3=NN(c4ccccc4)C(=O)CC3)n2)cc1`, the z-score is -0.2.

Regarding `COc1ccc(-n2nc([N+](=O)[O-])c(=NCCc3ccc(OC)c(OC)c3)n2O)cc1`, the z-score was -0.0116.

Regarding `CCCOC(=O)c1ccc(Oc2cn[nH]c2-c2ccc(OC)cc2O)cc1`, the z-score is -0.53.

With `Cc1ccc(C(=O)O/N=C2\CCCc3ccccc32)cc1`, the z-score was -0.149.

With `N/C(Cc1ccc([N+](=O)[O-])cc1)=N\OC(=O)COc1cccc2ccccc12`, the z-score is -0.185.

The compound `CC(=O)Nc1ccc(NC(=O)COC(=O)c2c(C)nn(-c3ccccc3)c2C)cc1` came in with a z-score of -0.546.

Regarding `CC(C)(C)c1ccc(OCc2ccc(C(=O)N/N=C/c3ccc([N+](=O)[O-])cc3)o2)cc1`, the z-score was -0.4.

In turn, `COc1ccc(S(=O)(=O)Nc2cccc(N(C)S(C)(=O)=O)c2)cc1Br` returned a z-score of -0.0878.

As for `O=C1CC(c2cccc(Br)c2)c2cc3c(cc2N1)CCC3` (centres undefined), the z-score is -0.00205.

As for `CCOc1ccc(NC(=O)Nc2ccc(N(C)C(C)=O)cc2)cc1`, the z-score was determined as 0.478.

As for `COc1ccc(N=C(N(C)C)P(=O)(N(C)C)N(C)C)cc1`, the z-score was determined as 0.372.

`O=[N+]([O-])c1ccc(NC(=S)N/C(=N/CS(=O)(=O)c2ccccc2)c2ccccc2)cc1` displayed a z-score of 0.245.

For the compound `O=C(CCn1c(=O)oc2ccccc21)N1CCOCC1`, the z-score was -0.393.

In the case of `O=C(/C(=C/c1ccccc1)c1ccccc1)N1CCCCC1`, the z-score is -0.248.

`Cc1cc(N2C(=O)C(O)=C(C(=O)c3cccs3)C2c2cccc(O)c2)no1` (centres undefined) showed a z-score of -0.216.

With `Cc1cccc(NC(=S)NN2CCN(C)CC2)c1`, the z-score is -0.088.

Consider `CCN(CC(=O)NC1CCCCCC1)S(=O)(=O)c1ccccc1`, for which the z-score is -0.176.

Take `COc1ccccc1Nc1nc2ccccc2[nH]1`: the z-score worked out at 0.699.

Consider `Cc1ccc(Nc2ccc(-n3ccnc3)nn2)cc1C`, for which the z-score amounted to 0.0826.

Turning to `Clc1ccc(-c2nc(Cc3ccccc3)no2)cc1`, the z-score was -0.129.

The compound `O=C(Nc1nccs1)c1cccc(NC(=O)c2ccco2)c1` displayed a z-score of -0.296.

The compound `COc1ccc(CNC(=O)c2cc3c(C)nc4ccccc4c3o2)c(OC)c1` came in with a z-score of -0.209.

`N#Cc1c(-c2ccccc2Cl)cc(C2CC2)nc1N` had a z-score of 0.952.

As for `COc1cccc(C(c2c(NC(=O)c3ccccc3)sc(C)c2C)N2CCN(C)CC2)c1` (centres undefined), the z-score is -0.221.

`CCCC(=O)NC(c1ccc(OC)c(OC)c1)c1c(O)ccc2ccccc12` (centres undefined): the z-score was -0.164.

Compound `O=C1c2cccc3cc(Br)cc(c23)C(=O)N1Nc1ccc(Br)cc1` registered a z-score of -0.252.

In the case of `COC(=O)C1Cc2c([nH]c3ccccc23)C(C)N1` (centres undefined), the z-score was -0.00869.

The compound `Cc1ccc(Cn2ccc(=O)c(Cc3c(Cl)cccc3Cl)c2C)cc1` had a z-score of -0.227.

Compound `CCCCOc1ccc(Br)cc1/C(C)=N/NC1=NCCN1` showed a z-score of 1.54.

Compound `COc1cc(C2NC(=S)NC(C)=C2C(=O)OC(C)C)ccc1OC(C)C` (centres undefined) showed a z-score of -0.28.

The compound `CCn1c(=NC(=O)CSC(C)=O)sc2cc(OC)ccc21` yielded a z-score of 0.477.

The compound `Cc1ccccc1C(=O)NC(=S)Nc1ccc(Cc2ccncc2)cc1` came in with a z-score of -0.501.

In the case of `CC1CC(C)CN(C(=O)c2ccccc2Nc2ccc(SC(F)F)cc2)C1` (centres undefined), the z-score is -0.146.

Regarding `O=C(CN1CCN(c2ncccn2)CC1)N1CCc2ccccc21`, the z-score was -0.0193.

For `Cc1c(Cl)cccc1NC(=S)N1CCN(c2ncccn2)CC1`, the z-score is -0.0626.

Take `COc1ccc(Cn2c(=O)[nH]c3cc(C(=O)NCCCN4CCCC4=O)ccc3c2=O)cc1`: the z-score was -0.401.

Consider `CSCSC1=C(C#N)C(c2ccc(Cl)cc2)C(C(C)=O)=C(C)N1` (centres undefined), for which the z-score is active: 3.87.

As to `CCCNC(=O)C1CCN(S(=O)(=O)c2c(C)noc2/C=C\c2ccc(OC)cc2)CC1`, the z-score is -0.554.

Turning to `O=C(CN1CCC(NC(=O)c2ccc(F)cc2)CC1)NCc1ccccc1F`, the z-score was determined as 0.457.

Turning to `CCOC(=O)C1=C(C)N=C(SC)N(C)C1c1ccccc1` (centres undefined), the z-score is -1.08.

As for `O=C1C(Cl)=C(N2CCOCC2)C(=O)N1CCc1ccccc1`, the z-score was -0.308.

`N#CC(C(=O)NCc1ccccc1)c1nc2ccccc2nc1N1CCCC1` (centres undefined) yielded a z-score of -0.252.

Compound `Cc1nc(N(C)C)c2sc(=S)n(C)c2n1` yielded a z-score of 0.47.

In turn, `O=C(Cc1n[nH]c(=O)[nH]c1=O)N/N=C/c1ccccc1` came in with a z-score of -0.18.

Turning to `CC(=O)c1ccc(NC(=O)c2cnn3c(C(F)F)cc(C4CC4)nc23)cc1`, the z-score came to 0.1.

As to `CCNC(=O)C1CC(=O)N(c2ccc(Br)cc2)C1` (centres undefined), the z-score is 1.03.

For `O=S(=O)(Nc1cc(Sc2cccc3cccnc23)c(O)c2ccccc12)c1ccc(F)cc1`, the z-score is active: 5.2.

`CC(=O)Nc1c(C(=O)N2CCCCCC2)cnn1-c1ccccc1` returned a z-score of -0.74.

`Cc1ccc(NC2CC(=O)N(Cc3ccccc3)C2=O)cc1` (centres undefined) showed a z-score of -0.0824.

In turn, `O=C(COC(=O)CCSc1ccc(Cl)cc1)NCc1ccccc1` gave a z-score of -0.25.

`CNS(=O)(=O)c1cccc2nsnc12` gave a z-score of -0.156.

With `CC(=O)Nc1ccc(OC(=O)c2ccco2)cc1`, the z-score was -0.125.

In turn, `Cn1c(=O)oc2cc(S(=O)(=O)NCCN3CCN(c4ccccc4)CC3)ccc21` had a z-score of -0.321.

Consider `CCN(CC)CCNC(=S)Nc1ccc(Cl)cc1`, for which the z-score came to 0.561.

`COc1ccc(-c2nc(N)nc(C)c2Oc2ccccc2Br)c(O)c1` yielded a z-score of -0.381.

`O=C(/C=C/Nc1ccccc1)c1ccc(Oc2ncccn2)cc1` displayed a z-score of -0.188.

`CCOC(=O)C(C)n1ncn2cccc2c1=O` (centres undefined) gave a z-score of -0.581.

Compound `O=C(CS(=O)(=O)c1ccccc1)Nc1nc(-c2ccccc2)cs1` had a z-score of 0.874.

Regarding `COc1ccccc1NC(=O)CC1C(=O)NCCN1C(=O)Nc1ccc(Cl)c(Cl)c1` (centres undefined), the z-score is 0.0563.

On to `CCCCC1(Cc2cccc([N+](=O)[O-])c2)C(=O)N(c2ccccc2)N(c2ccccc2)C1=O`, for which the z-score was -0.247.

Regarding `O=C(CSc1cccc(C(F)(F)F)c1)NC(=O)c1ccccc1`, the z-score came to 0.0234.

The compound `O=C(Nc1ccc(OCc2ccccc2)cc1)c1cccc([N+](=O)[O-])c1` had a z-score of -1.52.

In turn, `Cc1cccc(N2CCN(C(=O)c3c(C)nn(Cc4ccccc4Cl)c3C)CC2)c1C` returned a z-score of 0.0617.

With `CCCOC(=O)NC1C(NC(=O)OCCC)N(C)C(=O)N1C` (centres undefined), the z-score was found to be 0.328.

`Cc1ccc(-n2cnc3scc(-c4cccs4)c3c2=O)cc1` yielded a z-score of -0.366.

Compound `COc1ccc(-c2cnn3c(N)c(S(=O)(=O)C(C)(C)C)cnc23)cc1` yielded a z-score of -0.142.

As for `Cc1cc(C)c(S(=O)(=O)NCCn2ccc3ccccc32)c(C)c1`, the z-score was -0.437.

Compound `Cc1cc(NC(=O)CCC(=O)N(Cc2cccs2)C(C(=O)NC2CCCC2)c2cccnc2)no1` (centres undefined) showed a z-score of -0.0533.

`CN(C(=O)c1ccccc1)C1(C)CCS(=O)(=O)C1` (centres undefined) came in with a z-score of -0.199.

In the case of `COc1ccc2c(CN3CCN(S(=O)(=O)c4cccs4)CC3)cc(=O)oc2c1`, the z-score was -0.0625.

Compound `Cc1nc2c(cnn2-c2ccccc2Cl)c(=O)n1-c1ccc(N2CCC(C)CC2)cc1` returned a z-score of -1.16.

`CC(=O)Nc1ccc(S(=O)(=O)N[C@@H](C)C(=O)Nc2ccc(N3CCOCC3)cc2)cc1`: the z-score was found to be 0.0468.

Regarding `O=C(NCc1cccs1)c1csc2ccccc12`, the z-score worked out at 0.347.

As for `CN(C)c1cccc(C(=O)NC2CCCCCC2)c1`, the z-score is -0.0577.

These data come from PubChem BioAssay AID488969 (Vanderbilt High Throughput Screening Facility, 2010).
